Assay results from the supplement of paper PMC4967469.

Tests used:
Assay in all cases: Viability of human cancer cell lines after 72 h of drug (GDSC screen)
BMX-IN-1 (QL-XII-61) = compound: C=CC(=O)Nc1cc(-n2c(=O)ccc3cnc4ccc(-c5ccc(NS(C)(=O)=O)cc5)cc4c32)ccc1C [BMX-IN-1 (QL-XII-61)]; conditions: top dose 10 µM; top dose inferred
Procedure: (§1)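 Human cancer cell lines in 384-well plates, medium with 10% serum, drug for 72 h over a 256-fold dose range (nine 2-fold or five 4-fold steps up to the top dose). Adherent lines were fixed and stained with the nucleic acid dye Syto60, suspension lines read with resazurin; signal relative to control wells, capped at 0 and 100%. One two-parameter sigmoid per drug and line, fitted in a mixed model over all curves with the slope shared within a line.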

17-AAG = compound: C=CCNC1=C2C[C@@H](C)C[C@H](OC)[C@H](O)[C@@H](C)/C=C(\C)[C@H](OC(N)=O)[C@@H](OC)/C=C\C=C(/C)C(=O)NC(=CC1=O)C2=O [17-AAG]; conditions: top dose 1 µM
Procedure: as §1

CCT018159 = compound: CCc1cc(-c2n[nH]c(C)c2-c2ccc3c(c2)OCCO3)c(O)cc1O [CCT018159]; conditions: top dose 10 µM; top dose inferred
Procedure: as §1

BIX02189 = compound: CN(C)Cc1cccc(N=C(c2ccccc2)c2c(O)[nH]c3cc(C(=O)N(C)C)ccc23)c1 [BIX02189]; conditions: top dose 20 µM; top dose inferred
Procedure: as §1

Dimethyloxalylglycine = compound: COC(=O)CNC(=O)C(=O)OC [Dimethyloxalylglycine]; conditions: top dose 4000 µM; top dose inferred
Procedure: as §1

Doxorubicin = compound: COc1cccc2c1C(=O)c1c(O)c3c(c(O)c1C2=O)C[C@@](O)(C(=O)CO)C[C@@H]3O[C@H]1C[C@H](N)[C@H](O)[C@H](C)O1 [Doxorubicin]; conditions: top dose 1.024 µM
Procedure: as §1

OSI-027 = compound: COc1cccc2cc(-c3nc([C@H]4CC[C@H](C(=O)O)CC4)n4ncnc(N)c34)[nH]c12 [OSI-027]; conditions: top dose 20 µM
Procedure: as §1

Vismodegib = compound: CS(=O)(=O)c1ccc(C(=O)Nc2ccc(Cl)c(-c3ccccn3)c2)c(Cl)c1 [Vismodegib]; conditions: top dose 10 µM; top dose inferred
Procedure: as §1

VX-11e = compound: Cc1cnc(Nc2ccc(F)cc2Cl)nc1-c1c[nH]c(C(=O)N[C@H](CO)c2cccc(Cl)c2)c1 [VX-11e]; conditions: top dose 5.12 µM; top dose inferred
Procedure: as §1

TG101348 = compound: Cc1cnc(Nc2ccc(OCCN3CCCC3)cc2)nc1Nc1cccc(S(=O)(=O)NC(C)(C)C)c1 [TG101348]; conditions: top dose 10.24 µM
Procedure: as §1

UNC1215 = compound: O=C(c1ccc(C(=O)N2CCC(N3CCCC3)CC2)c(Nc2ccccc2)c1)N1CCC(N2CCCC2)CC1 [UNC1215]; conditions: top dose 1 µM; top dose inferred
Procedure: as §1

| Cell Line | AUC (BMX-IN-1 (QL-XII-61)) | IC50 (BMX-IN-1 (QL-XII-61)) | AUC (17-AAG) | IC50 (17-AAG) | AUC (CCT018159) | IC50 (CCT018159) | AUC (BIX02189) | IC50 (BIX02189) | AUC (Dimethyloxalylglycine) | IC50 (Dimethyloxalylglycine) | AUC (Doxorubicin) | IC50 (Doxorubicin) | AUC (OSI-027) | IC50 (OSI-027) | AUC (Vismodegib) | IC50 (Vismodegib) | AUC (VX-11e) | IC50 (VX-11e) | AUC (TG101348) | IC50 (TG101348) | AUC (UNC1215) | IC50 (UNC1215) |
| --- | --- | --- | --- | --- | --- | --- | --- | --- | --- | --- | --- | --- | --- | --- | --- | --- | --- | --- | --- | --- | --- | --- |
| FTC-133 (thyroid, adherent) | 0.977 | > 10 µM | 0.621 | 0.14 µM | 0.858 | 9.58 µM | 0.986 | > 20 µM | 0.797 | 2100 µM | 0.72 | 0.288 µM | 0.979 | > 20 µM | 0.951 | > 10 µM | 0.978 | > 5.12 µM | 0.896 | > 10.2 µM | 0.982 | > 1 µM |
| Farage (B-cell lymphoma, suspension) | 0.838 | 5.1 µM | 0.937 | > 1 µM | 0.945 | > 10 µM | 0.969 | > 20 µM | 0.486 | 231 µM | 0.31 | 0.021 µM | 0.109 | 0.0984 µM | 0.988 | > 10 µM | 0.719 | 1.17 µM | 0.799 | 3.93 µM | 0.988 | > 1 µM |
| G-401 (kidney, adherent) | 0.952 | > 10 µM | 0.6 | 0.121 µM | 0.892 | > 10 µM | 0.915 | > 20 µM | 0.697 | 953 µM | 0.372 | 0.0273 µM | 0.724 | 5.82 µM | 0.954 | > 10 µM | 0.801 | 2.8 µM | 0.831 | 7.4 µM | 0.982 | > 1 µM |
| GB-1 (glioma, adherent) | 0.98 | > 10 µM | 0.944 | > 1 µM | 0.862 | > 10 µM | 0.902 | > 20 µM | 0.354 | 91.4 µM | 0.703 | 0.267 µM | 0.348 | 0.436 µM | 0.961 | > 10 µM | 0.788 | 2.69 µM | 0.909 | > 10.2 µM | 0.979 | > 1 µM |
| GI-1 (glioma, adherent) | 0.974 | > 10 µM | 0.648 | 0.157 µM | 0.88 | 9.66 µM | 0.949 | > 20 µM | 0.424 | 156 µM | 0.523 | 0.0738 µM | 0.274 | 0.295 µM | 0.957 | > 10 µM | 0.972 | > 5.12 µM | 0.793 | 4.46 µM | 0.986 | > 1 µM |
| GI-ME-N (neuroblastoma, adherent) | 0.756 | 4.58 µM | 0.837 | > 1 µM | 0.832 | 9.99 µM | 0.737 | 7.79 µM | 0.724 | 1390 µM | 0.529 | 0.0789 µM | 0.345 | 0.395 µM | 0.976 | > 10 µM | 0.862 | > 5.12 µM | 0.634 | 1.72 µM | 0.968 | > 1 µM |
| GR-ST (lymphoblastic leukaemia, suspension) | 0.715 | 2.92 µM | 0.926 | > 1 µM | 0.831 | 8.27 µM | 0.863 | > 20 µM | 0.482 | 222 µM | 0.719 | 0.309 µM | 0.219 | 0.154 µM | 0.971 | > 10 µM | 0.938 | > 5.12 µM | 0.568 | 1.02 µM | 0.978 | > 1 µM |
| GRANTA-519 (B-cell lymphoma, suspension) | 0.892 | 9.73 µM | 0.981 | > 1 µM | 0.949 | > 10 µM | 0.96 | > 20 µM | 0.549 | 335 µM | 0.619 | 0.131 µM | 0.248 | 0.258 µM | 0.991 | > 10 µM | 0.991 | > 5.12 µM | 0.903 | > 10.2 µM | 0.988 | > 1 µM |
| GT3TKB (stomach, adherent) | 0.932 | > 10 µM | 0.524 | 0.0722 µM | 0.802 | 4.23 µM | 0.99 | > 20 µM | 0.468 | 207 µM | 0.4 | 0.0354 µM | 0.916 | > 20 µM | 0.987 | > 10 µM | 0.989 | > 5.12 µM | 0.979 | > 10.2 µM | 0.989 | > 1 µM |
| H9 (lymphoid neoplasm, suspension) | 0.901 | 8.89 µM | 0.872 | 0.672 µM | 0.876 | 6.98 µM | 0.924 | > 20 µM | 0.807 | 1630 µM | 0.479 | 0.0568 µM | 0.808 | 8.22 µM | 0.988 | > 10 µM | 0.685 | 0.946 µM | 0.769 | 3.21 µM | 0.991 | > 1 µM |
| H2369 (mesothelioma, adherent) | 0.976 | > 10 µM | 0.557 | 0.0901 µM | 0.933 | > 10 µM | 0.972 | > 20 µM | 0.272 | 54.9 µM | 0.491 | 0.0605 µM | 0.915 | > 20 µM | 0.987 | > 10 µM | 0.978 | > 5.12 µM | 0.954 | > 10.2 µM | 0.985 | > 1 µM |

The IC50 comes from the fitted curve, where viability falls to half of the control; fits outside the tested doses are given as limits. AUC is the area under the same curve over the 256-fold range up to the top dose, as a fraction; it is 1 without any effect and falls as sensitivity rises. For some assays here: Any top dose called inferred is not printed in the source and was worked back from the curve model.
